Measured values from PMC9911399, “Two distinct binding modes provide the RNA-binding protein RbFox with extraordinary sequence specificity”.
Positions count from the first letter of the chain named. The list shows a part of the results.

T1: RBFOX1 RRM RbFoxmut (Fox-RRM*) (Homo sapiens, UniProt Q9NWB1 109-208, R118D;E147R;N151S;E152T)
T1 sequence: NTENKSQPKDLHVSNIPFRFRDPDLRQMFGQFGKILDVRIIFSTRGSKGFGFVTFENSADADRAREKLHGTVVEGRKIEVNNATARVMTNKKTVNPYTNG

B1: UGACACC (DNA:RNA)
RNA: GGGAGACCGGAAUUCAGAUUGUCCUGACACCUUAAAUCCCGUCGUAGCCACCA
DNA 1: CAATCTGAATTCCGGTCTCCC
DNA 2: TGGTGGCTACGACGGGATT
B2: CACGUAC (DNA:RNA)
RNA: B1 RNA with U25C, G26A, A27C, C28G, A29U, C30A
DNA 1: CAATCTGAATTCCGGTCTCCC
DNA 2: TGGTGGCTACGACGGGATT
B3: UUACAGC (DNA:RNA)
RNA: B1 RNA with G26U, C30G
DNA 1: CAATCTGAATTCCGGTCTCCC
DNA 2: TGGTGGCTACGACGGGATT
B4: UUCGGGU (DNA:RNA)
RNA: B1 RNA with G26U, A27C, C28G, A29G, C30G, C31U
DNA 1: CAATCTGAATTCCGGTCTCCC
DNA 2: TGGTGGCTACGACGGGATT
B5: GUCCGCU (DNA:RNA)
RNA: B1 RNA with U25G, G26U, A27C, A29G, C31U
DNA 1: CAATCTGAATTCCGGTCTCCC
DNA 2: TGGTGGCTACGACGGGATT
B6: AGGGUGU (DNA:RNA)
RNA: B1 RNA with U25A, A27G, C28G, A29U, C30G, C31U
DNA 1: CAATCTGAATTCCGGTCTCCC
DNA 2: TGGTGGCTACGACGGGATT
B7: CGCUUGG (DNA:RNA)
RNA: B1 RNA with U25C, A27C, C28U, A29U, C30G, C31G
DNA 1: CAATCTGAATTCCGGTCTCCC
DNA 2: TGGTGGCTACGACGGGATT
B8: UCCAUAC (DNA:RNA)
RNA: B1 RNA with G26C, A27C, C28A, A29U, C30A
DNA 1: CAATCTGAATTCCGGTCTCCC
DNA 2: TGGTGGCTACGACGGGATT
B9: UACGACG (DNA:RNA)
RNA: B1 RNA with G26A, A27C, C28G, C31G
DNA 1: CAATCTGAATTCCGGTCTCCC
DNA 2: TGGTGGCTACGACGGGATT

molecular target: T1, RBFOX1 RRM RbFoxmut (Fox-RRM*); experiment: EMSA; HiTS-Eq, 1 nM pool, 10 min; buffer printed only for the single-RNA assays: 10 mM Tris pH 7.5, 150 mM NaCl, 3.4 mM EDTA, 0.001% NP-40, 30 C; settings: tags: His6 N-terminal (pET28a); label: 5' 32P
Outline: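 Purified RbFox RRM, wild type or mutant, was incubated for 10 min in 50 µL with 1 nM of a 5′-radiolabelled RNA pool carrying 7 randomized nucleotides, whose flanks were annealed to DNA oligonucleotides, over a series of increasing protein concentrations. Unbound RNA was resolved on 8% native PAGE, cut out, reverse-transcribed, barcoded by PCR and sequenced on an Illumina HiSeq 2500. Relative association constants were derived from changes in read counts for each RNA species versus the control reaction and normalised to the cognate motif.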

First: B1
Second: B2
The binding signal of the first is lower: 0.0695 KA relative to UGCAUGU for the first, 0.122 KA relative to UGCAUGU for the second.

First: B3
Second: B4
The binding signal of the first is higher: 0.0688 KA relative to UGCAUGU for the first, 0.0661 KA relative to UGCAUGU for the second.

First: B5
Second: B6
The binding signal of the first is lower: 0.11 KA relative to UGCAUGU for the first, 0.174 KA relative to UGCAUGU for the second.

First: B7
Second: B8
The binding signal of the first is higher: 0.145 KA relative to UGCAUGU for the first, 0.101 KA relative to UGCAUGU for the second.

In the case of B9, the binding signal is reported as 0.106 KA relative to UGCAUGU.
